# In PubChem BioAssay (NCATS):
# This list was built around the results that the source calls inconclusive (neither active nor inactive); the mix of calls is not that of the screen. For some of these results: Potencies of inconclusive entries are left out as doubtful fits. Active and inactive are the calls of the source. Unless noted, calls come from the whole dose curve; as a rule, active = well fitted curve in the direction sought with a large enough effect; inconclusive = small, poorly fitted or top-dose-only effect, or another doubt; inactive = no such curve, though single readings can be large; an effect the other way counts as inactive or inconclusive.
# Legend:
# [1] = Primary qHTS for small molecule stabilizers of the endoplasmic reticulum resident proteome: Secreted ER Calcium Modulated Protein (SERCaMP) assay (AID 1508630); conditions: SH-SY5Y GLuc-SERCaMP (Gaussia luciferase released on ER calcium loss) secretion, thapsigargin, luminescence; activity change, negative = inhibition: at 38.4 µM (top of the series) unless noted; note: potency is the fitted concentration of half-maximal effect; for activity change, negative = inhibition: % is set by controls: 0 for no effect and ±100 for the full control effect
# How it was run: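 GLuc-SERCaMP-expressing SH-SY5Y cells, pretreated 16 h with compound, are challenged with thapsigargin to empty ER calcium stores; after 4 h, coelenterazine is added directly to the medium and luminescence is imaged.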
# [2] = Stat Signaling Pathway (AID 446; active = well fitted curve in either direction with a large enough effect, not every such curve was filed as active; inconclusive = small, poorly fitted or top-dose-only effect, or another doubt;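 note: ME-180 cervical cancer cells given 40 pM IL-6 alongside compound; SIE-controlled beta-lactamase reporter measured as 460/530 nm FRET emission ratio; top concentration of the series differs between compounds; % is set by controls: 0 for no effect and ±100 for the full control effect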); conditions: ME-180 SIE beta-lactamase reporter, IL-6 stimulated, 5 h; at 7.69 µM (top of the series) unless noted
# How it was run: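 Reporter line: ME-180 cervical carcinoma, SIE-beta-lactamase. Treatment: compound with 40 pM IL-6, 5 hrs, 37 C, in low-serum OPTI-MEM with 10 mM HEPES pH 7.3. Detection: 460/530 nm fluorescence.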
# [3] = molecular target: 3',5'-cyclic-AMP phosphodiesterase 4B (Homo sapiens) (UniProt Q07343); test: qHTS Assay for Inhibitors of PDE-IV (AID 607; active = well fitted activation curve with a large enough effect in the main read-out, with a control signal flat, not every such curve was filed as active; inconclusive = small, poorly fitted or top-dose-only effect, or effect the other way, or a change in a side signal; note: potency is the fitted concentration of half-maximal effect); conditions: HEK293 ACTOne CNG channel cells, membrane potential fluorescence; activation (PDE inhibition): at 22.9 µM (top of the series)
# How it was run: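 Cell-based read-out of cAMP via a modified cyclic nucleotide-gated channel and membrane potential dye (535/590 nm) in HEK293 cells expressing PDE4 endogenously. Compounds tested up to 22.9 uM final; 100 uM RO 20-1724 reference.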
# [4] = qHTS Assay for Identification of Small Molecule Agonists for Hypoxia Response Element Signaling Pathway (AID 914; active = well fitted activation curve with a large enough effect in the signal ratio, with a control signal flat, not every such curve was filed as active; inconclusive = small, poorly fitted or top-dose-only effect, or effect the other way, or a change in a side signal; the % refers to the signal ratio; note: potency is the fitted concentration of half-maximal effect); conditions: ME-180 (cervical carcinoma) HRE-bla reporter, beta-lactamase ratio, CoCl2, 17 h; activation: hits give high values
# How it was run: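 Compounds in a titration series were added to ME-180 reporter cells alongside an EC50 level of CoCl2. After 17 hours, beta-lactamase activity was read as the 460nm/530nm emission ratio of CCF4, giving AC50 values.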
# [5] = Cell Viability qHTS for small molecule stabilizers of the endoplasmic reticulum resident proteome (AID 1508629); conditions: cell viability counter-screen, 100 nM thapsigargin for final 4 h;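 note: compound exposure about 46 h in total before the viability read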; note: potency is the fitted concentration of half-maximal effect;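 for max response: human SH-SY5Y neuroblastoma cells carrying the GLuc-SERCaMP reporter; % is set by controls: 0 for no effect and ±100 for the full control effect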
# [6] = NFAT Signaling Pathway (AID 444; active = well fitted curve in either direction with a large enough effect, not every such curve was filed as active; inconclusive = small, poorly fitted or top-dose-only effect, or another doubt;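 note: carbachol stimulus at about its EC50 of 1 µM final; % is set by controls: 0 for no effect and ±100 for the full control effect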); conditions: Jurkat NFAT-bla M1, carbachol, beta-lactamase ratio, 5 h; at 7.69 µM (top of the series) unless noted
# How it was run: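 Jurkat cells carrying an NFAT-driven β-lactamase reporter and co-transfected muscarinic M1 receptor were treated with compound plus carbachol (1 uM final, an EC50 level) for 5 h at 37 °C. CCF4 loading followed for 1 h at RT; 460/530 nm ratio gave %activity.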
# Tags give direction and shape of the fitted curve or compound fluorescence and quenching.
# Sequence of UniProt Q07343 (Q07343 whole entry, looked up): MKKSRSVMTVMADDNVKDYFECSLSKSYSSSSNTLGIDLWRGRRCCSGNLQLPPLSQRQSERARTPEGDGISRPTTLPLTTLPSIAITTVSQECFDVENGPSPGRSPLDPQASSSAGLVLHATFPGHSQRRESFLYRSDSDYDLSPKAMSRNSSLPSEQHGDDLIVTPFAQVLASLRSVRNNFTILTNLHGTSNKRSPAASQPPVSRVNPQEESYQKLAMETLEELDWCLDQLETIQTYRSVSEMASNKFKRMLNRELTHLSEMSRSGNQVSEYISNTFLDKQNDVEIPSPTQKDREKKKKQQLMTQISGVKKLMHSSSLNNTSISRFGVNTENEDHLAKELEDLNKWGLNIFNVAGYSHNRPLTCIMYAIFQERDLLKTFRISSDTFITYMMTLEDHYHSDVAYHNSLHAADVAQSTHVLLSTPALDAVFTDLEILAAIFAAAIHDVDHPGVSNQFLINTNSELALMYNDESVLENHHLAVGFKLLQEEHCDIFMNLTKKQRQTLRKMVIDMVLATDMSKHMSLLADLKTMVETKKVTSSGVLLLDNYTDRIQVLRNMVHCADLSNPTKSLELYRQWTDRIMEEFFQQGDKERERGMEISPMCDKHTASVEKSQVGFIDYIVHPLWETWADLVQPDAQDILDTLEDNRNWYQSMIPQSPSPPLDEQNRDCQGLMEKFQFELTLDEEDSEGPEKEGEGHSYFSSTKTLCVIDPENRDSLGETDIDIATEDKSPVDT
compound,measurement,setting,value
c1ccc(COCCCc2cnc[nH]2)cc1,Potency,[1],"inconclusive [inhibitor, partial curve, poor fit]"
N[C@H](C(=O)O)C1C(C(=O)O)C1C(=O)O (some centres undefined),Potency,[1],inactive
CCCCCCCCCCCCCCCCOCC(COP(=O)([O-])OCC[N+](C)(C)C)OC (centres undefined),Potency,[1],"inconclusive [inhibitor, full curve, poor fit]"
C[C@H](N)C(=O)O,Potency,[1],"inconclusive [inhibitor, full curve, poor fit]"
O=c1c(CCc2ccccc2)nc2cnc(N3CCNCC3)nc2n1CCc1ccccc1,"activity, negative = inhibition",[2],inactive: 16.4%
same,Potency,[3],"inconclusive [activator, partial curve]"
same,Potency,[4],"inconclusive [activator, partial curve]"
same,max response,[5],inactive: -5.58%
same,Potency,[1],"inconclusive [inhibitor, partial curve, poor fit]"
C=C[C@@]1(C)CC(=O)[C@@]2(O)[C@@]3(C)[C@@H](O)CCC(C)(C)[C@@H]3[C@H](OC(=O)CCN(C)C)[C@H](OC(C)=O)[C@@]2(C)O1,Potency,[3],"inconclusive [rising, full curve, poor fit]"
same,Potency,[5],"inconclusive [rising, partial curve, poor fit]"
same,Potency,[1],"inconclusive [inhibitor, partial curve, poor fit]"
COc1ccc(C(=O)N2CCC[C@@]3(CCN(Cc4nccs4)C3)C2)cc1,Potency,[1],inactive
CC(C)c1cc(/C=C(\C#N)C(=O)NCCCc2ccccc2)cc(C(C)C)c1O,Potency,[1],"inconclusive [inhibitor, single point]"
COc1ccc(NC(=O)N2CC3(CCN(S(=O)(=O)c4ccccc4)CC3)C2)cc1,Potency,[1],inactive
CCCCCCCCCCCCCCC[C@@H](O)[C@H](CO)NC(=O)CCCCCCC,Potency,[1],"inconclusive [inhibitor, full curve]"
CCCCC/C=C\C[C@@H](O)/C=C/C=C/C=C\[C@@H](O)CCCC(=O)O,Potency,[1],"inconclusive [inhibitor, partial curve, poor fit]"
COCCNC(=O)COc1ccc(OCCNC[C@@H](O)COc2ccccc2)cc1,Potency,[1],inactive
FC(F)(F)c1ccccc1-c1nc(N2CCNCC2)c2ccccc2n1,"activity change, negative = inhibition",[6],inconclusive: -65.9% [inhibitor]
same,Potency,[5],"inconclusive [rising, full curve]"
same,Potency,[1],"inconclusive [inhibitor, partial curve, poor fit]"
O=C(c1ccncc1)N1CCC2(CC1)CN(c1ccccc1)C2,Potency,[1],inactive
NC(C(=O)O)c1ccc(P(=O)(O)O)cc1 (centres undefined),Potency,[1],"inconclusive [inhibitor, partial curve, poor fit]"
COc1cc2oc(=O)c3c4c(cc5ccc(c1CCN(C)C)c2c53)OCO4,Potency,[1],inactive
COCCNc1ncnc2ccc(-c3ccccc3CN(C)C)cc12,Potency,[1],"inconclusive [inhibitor, single point]"
COc1cccc(Nc2ncc3nc(C)c(=O)n(CCC#N)c3n2)c1,Potency,[1],"inconclusive [inhibitor, single point]"
CC(N)(COP(=O)(O)O)C(=O)O (centres undefined),Potency,[1],inactive
OCC1=CC[N+]2(Cc3ccccc3)CCC(O)[C@@H]12 (some centres undefined),Potency,[1],inactive
C=C1C2CC[C@]3(CCC4[C@@]5(C)CCC[C@@]4(CN(CCO)C5)[C@@H]3C2)[C@@H]1O (some centres undefined),Potency,[1],"inconclusive [inhibitor, partial curve, poor fit]"
CCCCC/C=C\C\C=C/C=C/C=C/[C@@H](SC[C@H](N)C(=O)O)[C@@H](O)CCCC(=O)O,"activity change, negative = inhibition",[1],inactive: -5.61% [at 0.478 µM]
CC(=O)N[C@@H](CSC/C=C(\C)CCC=C(C)C)C(=O)O,Potency,[1],inactive
COC(C)(C)CCCC(C)C/C=C/C(C)=C/C(=O)O (centres undefined),Potency,[1],inactive
C[C@H](CCC(=O)NCC(=O)O)C1CC[C@H]2C3CC[C@@H]4C[C@H](O)CC[C@]4(C)C3C[C@H](O)[C@]12C (some centres undefined),Potency,[1],"inconclusive [inhibitor, partial curve]"
O=C(C1CCCCC1)N(CCN1CCN(c2ccccc2CO)CC1)c1ccccn1,Potency,[1],"inconclusive [inhibitor, partial curve, poor fit]"
